Assay results as given in the supplement of paper PMC9446081.
About 220 (0.56%) of roughly 39,000 compounds showed activity. The list shows a part of the results.

What follows are compounds tested on Escherichia coli K-12 BW25113 (assay: relative growth (OD600 normalised to plate interquartile mean) (fraction); higher = less growth inhibition, active = 0.2 or less). Conditions: 50 µM; LB; incubation time: overnight (16-24 h).
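Note: static incubation at 37 °C against the wild-type strain, values averaged over two biological replicates.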

SMILES | relative growth
CCC(=O)N1C[C@]2(C1)CN([C@@H](CO)c1c2c2ccc(cc2n1C)OC)C(=O)CN1CCOCC1 | inactive: 1
COc1ccc2c3c(n(c2c1)C)[C@@H](CO)N(C[C@]13CCN(CC1)C(=O)C1CCOCC1)C(=O)C1CCOCC1 | inactive: 1.01
Nc1ccc(S(=O)(=O)c2ccc(N)cc2)cc1 | inactive: 1.27
CN(C)C(=O)C[C@@H]1CC[C@@H]2[C@H](COC[C@@H](O)CN2S(=O)(=O)c2ccccc2)O1 | inactive: 1.02
COc1ccc(-c2cc(=O)c3c(O)c(OC)c(O[C@H]4O[C@H](CO[C@@H]5O[C@@H](C)[C@H](O)[C@@H](O)[C@H]5O)[C@@H](O)[C@H](O)[C@H]4O)cc3o2)cc1 | inactive: 1.02
C[C@H](CO)N1C[C@H](C)[C@H](CN(C)Cc2ccncc2)Oc2c(NC(=O)c3ccncc3)cccc2C1=O | inactive: 0.954
COc1ccc(NS(=O)(=O)c2ccc(N)cc2)nn1 | inactive: 0.953
Nc1ccc(C(=O)NCC(=O)O)cc1 | inactive: 1.16
CCCNC(=O)Nc1ccc2c(c1)C(=O)N(C)C[C@@H](OC)[C@H](C)CN(C(=O)C1CCOCC1)[C@@H](C)CO2 | inactive: 0.956
COc1ccc(CN(C)C[C@@H]2Oc3ccc(NS(C)(=O)=O)cc3CC(=O)N([C@H](C)CO)C[C@H]2C)cc1 | inactive: 0.977
Cc1ccccc1NC(=N)N=C(N)N | inactive: 1.02
O=C(CN1CCN(S(=O)(=O)c2ccc(F)c(Cl)c2)CC1)N1CCNC1=O | inactive: 1.01
Cc1noc(C)c1S(=O)(=O)Nc1cccc2c1O[C@H](CN(C)Cc1ccc(C(=O)O)cc1)[C@@H](C)CN([C@H](C)CO)C2=O | inactive: 0.971
COc1ccc(NC(=O)Nc2ccc3c(c2)C(=O)N([C@H](C)CO)C[C@H](C)[C@@H](CN(C)C(=O)Nc2ccccc2)OCCCC[C@@H](C)O3)cc1 | inactive: 1.02
C[C@@H]1CCCCO[C@H](CN(C)S(=O)(=O)c2cccs2)[C@H](C)CN([C@@H](C)CO)C(=O)c2cc(NC(=O)c3ccccc3)ccc2O1 | inactive: 1.03
COc1ccc(C#Cc2cnc3c(c2)C(=O)N([C@H](C)CO)C[C@H](C)[C@H](CN(C)C(=O)NC(C)C)O3)cc1OC | inactive: 1
C[C@@H]1CN([C@@H](C)CO)C(=O)c2cc(NC(=O)Cc3cn(C)c4ccccc34)ccc2O[C@@H]1CN(C)Cc1ccc(C(=O)Nc2ccccc2N)cc1 | inactive: 0.972
CC(=O)N[C@@H]1C[C@H](O)[C@@H](O)CCC(=O)N[C@H](c2ccccc2)COC1=O | inactive: 0.987
CC[C@@H](C)c1ccc(NC(=O)c2cc3ccccc3o2)cc1 | inactive: 1.08
Cc1ccc(S(=O)(=O)N(C)C[C@H]2OCCCC[C@H](C)Oc3ccc(NC(=O)NC4CCCCC4)cc3C(=O)N([C@H](C)CO)C[C@H]2C)cc1 | inactive: 1
C[C@H]1CCCCO[C@@H](CN(C)S(=O)(=O)c2cccs2)[C@@H](C)CN([C@@H](C)CO)C(=O)c2cc(NC(=O)Nc3ccc(C(F)(F)F)cc3)ccc2O1 | inactive: 0.999

SMILES | relative growth
C[C@@H]1CCCCO[C@@H](CN(C)C(=O)Nc2ccccc2)[C@@H](C)CN([C@H](C)CO)C(=O)c2cc(NC(=O)c3ccccc3)ccc2O1 | inactive: 0.989
CC(C)C[C@@H]1NC(=O)[C@H]2C[C@@H](C(=O)NCCCC[N+](C)(C)C)[C@@H](c3cccc(OCCO)c3)N2C1=O | inactive: 0.993
C[C@H](CO)N1C[C@H](C)[C@H](CN(C)Cc2ccncc2)OCCCC[C@H](C)Oc2ccc(NC(=O)c3ccccc3)cc2C1=O | inactive: 0.991
C[C@@H]1CN([C@@H](C)CO)C(=O)c2cc(NC(=O)Nc3ccccc3)ccc2O[C@@H](C)CCCCO[C@H]1CN(C)C(=O)CCC(F)(F)F | inactive: 0.994
CN(C)c1ccc([C@@H](CN)N2CCc3ccccc3C2)cc1 | inactive: 0.966
C[C@H]1CN([C@@H](C)CO)C(=O)c2cccc(NC(=O)c3ccc(-c4nccs4)cc3)c2O[C@@H]1CN(C)S(C)(=O)=O | inactive: 1
C[C@@H]1CN([C@H](C)CO)C(=O)c2cc(NC(=O)Cn3cnnn3)ccc2O[C@@H]1CN(C)C(=O)Nc1ccc2c(c1)OCO2 | inactive: 1.02
C[C@H]1CN([C@@H](C)CO)C(=O)Cc2cc(NC(=O)CCCCCC(=O)Nc3ccccc3N)ccc2O[C@@H]1CN(C)S(C)(=O)=O | inactive: 1.02
C[C@@H]1CN([C@H](C)CO)C(=O)Cc2cc(NC(=O)NC3CCCCC3)ccc2O[C@H]1CN(C)S(C)(=O)=O | inactive: 1
C[C@H]1CN([C@@H](C)CO)S(=O)(=O)c2ccc(Br)cc2O[C@@H]1CN(C)C(=O)c1cccnc1 | inactive: 0.972
O=C(C[C@H]1CC[C@@H]2[C@H](COC[C@@H](O)CN2C(=O)C2CC2)O1)NCc1ccncc1 | inactive: 0.983
C[C@H](CO)N1C[C@H](C)[C@@H](CN(C)S(=O)(=O)c2ccccc2)OCCCC[C@H](C)Oc2ccc(NC(=O)c3ccccc3)cc2C1=O | inactive: 1.02
C[C@@H]1CN([C@@H](C)CO)C(=O)c2cc(NC(=O)C3CCCCC3)ccc2O[C@@H](C)CCCCO[C@H]1CN(C)S(=O)(=O)c1ccc(Cl)cc1 | inactive: 1.04
COc1ccccc1NC(=O)N(C)C[C@H]1Oc2cc(Br)ccc2S(=O)(=O)N([C@@H](C)CO)C[C@@H]1C | inactive: 0.996
COc1cccc(OC)c1C(=O)NN | inactive: 0.975
CO[C@@H]1CN(C)C(=O)c2ccc(NS(C)(=O)=O)cc2OC[C@H](C)N(C(=O)c2ccc3c(c2)OCO3)C[C@@H]1C | inactive: 1.02
C[C@@H]1CN([C@@H](C)CO)C(=O)Cc2cc(NC(=O)Nc3ccc(F)cc3)ccc2O[C@H]1CN(C)Cc1ccc(-c2ccccc2)cc1 | inactive: 1.06
NCc1ccc(-n2cccn2)cc1 | inactive: 0.97
C[C@H]1CN([C@@H](C)CO)S(=O)(=O)c2ccc(C#CCN(C)C)cc2O[C@@H]1CN(C)Cc1ccc(F)cc1 | inactive: 0.983
C[C@@H]1CN([C@@H](C)CO)C(=O)c2ccccc2-c2ccccc2CO[C@@H]1CN(C)C(=O)Nc1cccc(Cl)c1Cl | inactive: 0.991
CC(C)NC(=O)Nc1ccc2c(c1)C(=O)N([C@H](C)CO)C[C@H](C)[C@H](CN(C)Cc1ccc(C(=O)O)cc1)O2 | inactive: 1.02

SMILES | relative growth
O=C(C[C@H]1C[C@@H]2c3cc(NC(=O)c4ccc5c(c4)OCO5)ccc3O[C@@H]2[C@H](CO)O1)NCc1ccccn1 | inactive: 0.922
C[C@@H]1CCCCO[C@H](CN(C)C(=O)Nc2cccc3ccccc23)[C@@H](C)CN([C@H](C)CO)C(=O)c2cc(NS(=O)(=O)c3cn(C)cn3)ccc2O1 | inactive: 0.998
C[C@H]1CN([C@@H](C)CO)C(=O)c2cc(NC(=O)CCN3CCOCC3)ccc2O[C@@H]1CN(C)S(=O)(=O)c1ccc(Cl)cc1 | inactive: 0.996
C[C@@H]1CCCCO[C@@H](CN(C)Cc2ccc3c(c2)OCO3)[C@@H](C)CN([C@@H](C)CO)C(=O)c2cc(NC(=O)NC3CCCCC3)ccc2O1 | inactive: 1
C[C@@H]1CN([C@@H](C)CO)C(=O)Cc2cc(NC(=O)c3ccncc3)ccc2O[C@H]1CN(C)Cc1ccncc1 | inactive: 0.991
CC(C)NC(=O)Nc1ccc2c(c1)CC(=O)N([C@H](C)CO)C[C@H](C)[C@@H](CN(C)Cc1ccc3c(c1)OCO3)O2 | inactive: 1.02
C[C@@H]1CN([C@@H](C)CO)C(=O)c2cc(NC(=O)c3ccccc3)ccc2O[C@@H](C)CCCCO[C@@H]1CN(C)C(=O)Nc1ccccc1 | inactive: 1
C[C@H]1CN([C@@H](C)CO)C(=O)c2cc(NC(=O)Cn3cnnn3)ccc2O[C@@H]1CN(C)Cc1ccccc1 | inactive: 1.03
COc1ccc(-c2cnc3c(c2)C(=O)N([C@@H](C)CO)C[C@H](C)[C@H](CN(C)C(=O)Cc2cccnc2)O3)cc1 | inactive: 0.951
C[C@]1(C(=O)NCC(F)(F)F)c2ccccc2C(=O)N(Cc2cc(C(F)(F)F)cc(C(F)(F)F)c2)[C@H]1c1ccc(CO)cc1 | inactive: 0.986
COCC(=O)Nc1ccc2c(c1)OC[C@H](C)N(C(=O)Cc1ccccn1)C[C@@H](C)[C@H](OC)CN(C)C2=O | inactive: 0.974
COc1ccc(S(=O)(=O)N(C)C[C@@H]2Oc3c(cccc3N(C)C)C(=O)N([C@H](C)CO)C[C@H]2C)cc1 | inactive: 1.02
CC1(C)OC(=O)NC1=O | inactive: 1.02
O=S1(=O)[C@@H]2C[C@H]3C=CC2(CN1C1CC1)O3 | inactive: 1.01
COCC(=O)Nc1ccc2c(c1)C(=O)N(C)C[C@@H](OC)[C@@H](C)CN(Cc1cccc(F)c1)[C@@H](C)CO2 | inactive: 1.01
c1ccc(-c2cc(-c3ccccc3)n(-c3ccccc3)n2)cc1 | inactive: 0.986
COc1ccc(S(=O)(=O)N(C)C[C@H]2Oc3cc(C#CC4CC4)ccc3S(=O)(=O)N([C@@H](C)CO)C[C@H]2C)cc1 | inactive: 1.07
C[C@H](CO)N1C[C@H](C)[C@H](CN(C)C(=O)Nc2ccc3c(c2)OCO3)Oc2ncc(C#CCN(C)C)cc2C1=O | inactive: 0.993
COc1ccccc1C(=O)Nc1ccc2c(c1)C(=O)N(C)[C@H]1CC[C@H](CC(=O)NCc3ccc(Cl)c(Cl)c3)O[C@@H]1CO2 | inactive: 1.02
C[C@@H]1CN([C@@H](C)CO)C(=O)c2cc(NC(=O)Nc3ccccc3)ccc2O[C@@H](C)C/C=C/CO[C@H]1CN(C)S(=O)(=O)c1ccc(F)cc1 | inactive: 1.02
